Assay results published in the supplement of paper PMC10441789.
This is one part of the list. Antibody binding of pooled human sera (four to six donors per pool; dilution not stated) to peptides of the Trypanosoma cruzi antigen TSSA on microarrays. Quantile-normalised fluorescence in arbitrary units, mean of duplicate arrays; higher = more binding. No active / inactive call. The uninfected pools are read here as the healthy donors of the same country. The strongest signals lie near the top of the scale (about 60,000).

Legend:
Test in all cases: antibody binding signal (normalised fluorescence) (arbitrary fluorescence units); higher = stronger serum antibody binding to peptide
[1] = test system: pooled sera of chronic Chagas disease patients, Argentina
Procedure: (§1)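 Microarray of 15-residue peptides over residues 30-55 of Trypanosoma cruzi TSSAII, each with 1 to 10 substitutions at naturally variable positions, probed with one serum pool per country.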

[2] = test system: pooled sera of chronic Chagas disease patients, Bolivia
Procedure: as §1

[3] = test system: pooled sera of chronic Chagas disease patients, Brazil
Procedure: as §1

[4] = test system: pooled sera of chronic Chagas disease patients, Colombia
Procedure: as §1

[5] = test system: pooled sera of chronic Chagas disease patients, Mexico
Procedure: as §1

[6] = test system: pooled sera of chronic Chagas disease patients, USA
Procedure: as §1

[7] = test system: pooled sera of uninfected people, Argentina
Procedure: as §1

[8] = test system: pooled sera of uninfected people, Bolivia
Procedure: as §1

[9] = test system: pooled sera of uninfected people, Brazil
Procedure: as §1

[10] = test system: pooled sera of uninfected people, Colombia
Procedure: as §1

[11] = test system: pooled sera of uninfected people, Mexico
Procedure: as §1

[12] = test system: pooled sera of uninfected people, USA
Procedure: as §1

Row | Sequence | antibody binding signal [1] | antibody binding signal [2] | antibody binding signal [3] | antibody binding signal [4] | antibody binding signal [5] | antibody binding signal [6] | antibody binding signal [7] | antibody binding signal [8] | antibody binding signal [9] | antibody binding signal [10] | antibody binding signal [11] | antibody binding signal [12]
1 | GKENKPATGGTPSQS | 1610 | 464 | 7350 | 3060 | 4440 | 10600 | 806 | 283 | 192 | 113 | 220 | 124
2 | DNKPATGGTPSQPGA | 442 | 963 | 16800 | 851 | 435 | 456 | 334 | 492 | 636 | 378 | 942 | 177
3 | KDNKTATGGAPSQPG | 491 | 272 | 751 | 1880 | 223 | 317 | 356 | 166 | 153 | 180 | 103 | 158
4 | GTDNKTATGGTPSQS |  | 1080 | 27300 | 1080 | 652 | 667 | 430 | 789 | 2260 | 205 | 627 | 199
5 | TDNKTAAGETPSPPG | 196 | 254 | 964 | 258 | 328 | 959 | 145 | 371 | 220 | 131 | 140 | 1130
6 | SGKDKKTATGETPSP | 454 | 330 | 512 | 529 | 637 | 5610 | 282 | 124 | 89.9 | 241 | 104 | 417
7 | TDKKAAAGEAPSPSG | 647 | 336 | 4030 | 351 | 306 | 10200 | 142 | 109 | 192 | 88.7 | 124 | 123
8 | KDKKTAAGETPSPSG | 173 | 251 | 161 | 221 | 198 | 927 | 107 | 90.2 | 101 | 204 | 82 | 405
9 | DNKTAAGGAPSQSGA | 443 | 573 | 693 | 5230 | 577 | 380 | 326 | 492 | 781 | 284 | 644 | 249
10 | SGTDNKPATGEAPSP | 43700 | 48700 | 48700 | 1260 | 198 | 38900 | 884 | 843 | 433 | 193 | 288 | 166
11 | TDKKTATGETPSPPG | 266 | 577 | 1070 | 404 | 322 | 6500 | 192 | 171 | 288 | 126 | 201 | 1170
12 | KEKKTAAGGTPSPPG | 194 | 296 | 184 | 3250 | 218 | 1550 | 97.9 | 84.9 | 224 | 182 | 73.3 | 120
13 | TDKKTATGGTPSQSG | 1000 | 422 | 578 | 3090 | 571 | 1460 | 413 | 106 | 284 | 719 | 269 | 134
14 | STPPSGTDNKTATGG | 48500 | 48500 | 49200 | 1770 | 30500 | 28700 | 1170 | 748 | 1780 | 265 | 305 | 319
15 | GTDNKPAAGEAPSPP | 3670 | 801 | 42600 | 962 | 214 | 15700 | 138 | 591 | 294 | 110 | 305 | 108
16 | GKDKKPATGETPSPS | 29100 | 6300 | 18200 | 5400 | 5540 | 18000 | 168 | 185 | 115 | 127 | 383 | 886
17 | GKDKKTATGGAPSQS | 1090 | 183 | 380 | 1420 | 1630 | 1400 | 215 | 85.2 | 101 | 76.1 | 114 | 116
18 | PSGTENKAAAGGTPS | 48000 | 20500 | 45200 | 6890 | 5290 | 10200 | 1360 | 717 | 1480 | 612 | 520 | 300
19 | GTDKKAATGEAPSPS | 21700 | 20300 | 26600 | 1980 | 677 | 27100 | 521 | 208 | 253 | 502 | 306 | 163
20 | PPSGKEKKTATGEAP |  | 2840 | 5770 | 2130 | 3740 | 15900 | 479 | 668 | 121 | 272 | 218 | 182
